# Test results from the supplement of paper PMC7826260.
# The other results are listed elsewhere or left out. One pool of 16,384 single-stranded DNAs met each Rep nickase domain in vitro at 3 µM enzyme and 37 °C for 1 h; the strands have 90 letters, of which the middle is given. Uncut reads are compared with the no-enzyme pool on a log2 scale; more negative means more cut, near 0 not cut, and no call is made. The scaling is to total reads; uncut strands gain when others are lost, and binding without cutting may add a little.
# What was measured:
# Assay in all cases: uncleaved DNA left, log2 of reads against the no-enzyme library (log2 ratio); higher = less cleavage (more negative = more Rep cleavage of the k-mer); sequences stand for … in CTCGTCCG…ACCGGAGA
# [1] = tested on: T1, Rep nickase domain of Muscovy duck circovirus
# T1 sequence (residues 1-111 of Rep, tag left off): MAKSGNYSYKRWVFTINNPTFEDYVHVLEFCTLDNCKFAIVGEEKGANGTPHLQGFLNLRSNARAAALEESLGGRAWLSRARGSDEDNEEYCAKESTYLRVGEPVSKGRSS
# Procedure: (§1)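 A pool of 90-nt single-stranded DNAs with seven random bases just before the constant AC of the nick site (name = the seven bases) was cut by 3 µM recombinant His6-SUMO-tagged Rep nickase domain (300 nM DNA, 50 mM HEPES pH 8.0, 50 mM NaCl, 1 mM MnCl2, 1 h, 37 °C, three replicates). Uncut DNA was amplified and sequenced.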
# [2] = tested on: T2, Rep nickase domain of banana bunchy top virus
# T2 sequence (residues 1-94 of Rep, tag left off): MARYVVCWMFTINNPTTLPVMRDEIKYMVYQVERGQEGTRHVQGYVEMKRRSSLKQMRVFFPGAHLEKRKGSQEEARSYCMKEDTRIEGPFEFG
# Procedure: as §1
# [3] = tested on: T3, Rep nickase domain of cabbage leaf curl virus
# T3 sequence (residues 1-116 of Rep, tag left off): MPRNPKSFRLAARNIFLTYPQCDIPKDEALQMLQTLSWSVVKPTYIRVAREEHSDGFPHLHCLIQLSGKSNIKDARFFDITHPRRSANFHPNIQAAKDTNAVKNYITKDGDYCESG
# Procedure: as §1
# [4] = tested on: T4, Rep nickase domain of chickpea chlorotic dwarf virus
# T4 sequence (residues 1-124 of Rep, tag left off): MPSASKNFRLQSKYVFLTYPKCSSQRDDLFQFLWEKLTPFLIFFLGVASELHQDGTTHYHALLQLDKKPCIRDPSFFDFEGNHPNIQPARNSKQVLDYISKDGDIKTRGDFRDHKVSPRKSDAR
# Procedure: as §1
# [5] = tested on: T5, Rep nickase domain of faba bean necrotic yellows virus
# T5 sequence (residues 1-98 of Rep, tag left off): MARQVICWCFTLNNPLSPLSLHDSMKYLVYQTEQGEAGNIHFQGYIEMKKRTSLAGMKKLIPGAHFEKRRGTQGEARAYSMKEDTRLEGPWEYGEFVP
# Procedure: as §1
# [6] = tested on: T6, Rep nickase domain of maize striate mosaic virus
# T6 sequence (residues 1-117 of Rep, tag left off): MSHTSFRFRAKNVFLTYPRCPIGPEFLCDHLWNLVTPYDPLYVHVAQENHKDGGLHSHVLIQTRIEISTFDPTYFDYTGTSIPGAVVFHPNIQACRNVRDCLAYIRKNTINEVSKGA
# Procedure: as §1
# [7] = tested on: T7, Rep nickase domain of porcine circovirus 2
# T7 sequence (residues 2-116 of Rep, tag left off): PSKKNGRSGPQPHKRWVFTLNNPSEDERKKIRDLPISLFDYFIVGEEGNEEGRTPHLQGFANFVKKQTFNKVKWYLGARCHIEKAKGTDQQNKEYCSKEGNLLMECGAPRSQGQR
# Procedure: as §1
# [8] = tested on: T8, Rep nickase domain of tomato golden mosaic virus
# T8 sequence (residues 1-124 of Rep, tag left off): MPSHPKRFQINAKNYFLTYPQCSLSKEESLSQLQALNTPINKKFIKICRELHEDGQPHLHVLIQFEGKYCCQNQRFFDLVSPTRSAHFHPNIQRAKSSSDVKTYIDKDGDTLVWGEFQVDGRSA
# Procedure: as §1
# [9] = tested on: T9, Rep nickase domain of tomato yellow leaf curl virus
# T9 sequence (residues 1-136 of Rep, tag left off): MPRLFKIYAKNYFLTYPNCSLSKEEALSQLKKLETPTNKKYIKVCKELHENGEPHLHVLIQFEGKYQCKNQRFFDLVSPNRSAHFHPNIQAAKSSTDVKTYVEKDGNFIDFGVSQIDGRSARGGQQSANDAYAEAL
# Procedure: as §1
# [10] = tested on: T10, Rep nickase domain of wheat dwarf virus
# T10 sequence (residues 1-137 of Rep, tag left off): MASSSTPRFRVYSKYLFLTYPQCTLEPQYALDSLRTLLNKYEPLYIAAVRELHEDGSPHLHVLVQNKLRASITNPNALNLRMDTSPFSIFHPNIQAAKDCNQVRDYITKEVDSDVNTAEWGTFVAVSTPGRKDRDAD
# Procedure: as §1
Sequence,uncleaved DNA left (log2) [1],uncleaved DNA left (log2) [2],uncleaved DNA left (log2) [3],uncleaved DNA left (log2) [4],uncleaved DNA left (log2) [5],uncleaved DNA left (log2) [6],uncleaved DNA left (log2) [7],uncleaved DNA left (log2) [8],uncleaved DNA left (log2) [9],uncleaved DNA left (log2) [10]
ACCTGGA,0.0415,-0.0632,-0.107,0.05,0.0725,-0.636,0.0549,0.0528,-0.0516,-0.122
CGCTTGC,-0.138,-0.106,-0.742,-0.536,-0.064,-1.02,0.058,-0.104,-0.159,-0.166
AGTCAGC,0.0847,0.0827,-0.131,-0.215,0.211,-0.693,0.115,0.0577,0.0543,0.154
ATGTGGT,-0.088,0.027,0.144,0.879,-0.169,1.16,-2.34,-0.00828,-0.0736,-0.0252
TGCTTTG,0.0397,0.00383,-0.194,-0.339,0.0515,-0.746,0.0162,0.121,0.142,0.0981
AGGTGCA,-0.0593,-0.0201,-0.103,-0.241,-0.0624,-0.622,-0.0665,0.0315,0.104,-0.0445
TCTGCAA,-0.0333,0.0835,-0.187,-0.492,0.0396,-1.03,0.0397,-0.0865,0.0656,0.036
CTGTCCG,0.0895,0.13,-0.312,-0.19,0.142,-0.618,0.264,0.0672,0.053,-0.000392
CGATTTA,-0.126,0.00538,-0.101,-0.957,-0.149,-0.441,-0.379,-0.11,-0.0725,-0.00428
ACTGTGG,0.0214,0.0379,-0.6,-0.472,0.0191,-1.11,0.11,0.0525,0.159,-0.138
CCCTTGC,-0.178,-0.0254,-0.789,-0.454,-0.171,-1.03,-0.0858,-0.188,-0.0491,-0.114
GCCGGCT,-0.0879,-0.0355,0.0693,0.179,0.0434,-0.0591,-0.00813,-0.0521,-0.114,-0.0233
TTAAATT,-0.216,-0.173,-0.125,-2.51,0.0287,-0.311,-1.02,-0.0977,-0.0946,-0.278
GCTATAG,0.118,0.0624,-0.478,-0.258,0.0962,-1.03,0.204,0.135,0.115,-0.0322
CGTCGGA,0.0177,0.0486,0.0789,0.356,-0.00322,0.124,0.0764,-0.0381,0.0501,-0.167
CCTAATT,-0.0566,0.141,0.0128,-2.56,0.0993,-0.839,-0.64,0.0348,-0.144,-0.15
GGGTTAG,0.0986,0.0627,0.684,1.68,-0.0135,1.77,0.305,-0.00441,-0.025,0.132
GTAATCA,-0.0603,0.134,0.244,0.844,-0.00288,1.64,0.0544,0.047,0.125,0.0916
ACTATAG,0.0233,-0.025,-0.775,-0.426,-0.0222,-1.37,0.0222,-0.0513,-0.114,-0.195
GTCTGTC,0.0757,0.147,0.37,0.888,0.0673,1.39,0.163,0.129,0.0793,0.181

Sequence,uncleaved DNA left (log2) [1],uncleaved DNA left (log2) [2],uncleaved DNA left (log2) [3],uncleaved DNA left (log2) [4],uncleaved DNA left (log2) [5],uncleaved DNA left (log2) [6],uncleaved DNA left (log2) [7],uncleaved DNA left (log2) [8],uncleaved DNA left (log2) [9],uncleaved DNA left (log2) [10]
TAGGCAG,0.0305,-0.0175,-0.461,-0.439,0.0417,-0.902,0.139,0.0843,0.0689,-0.0322
TTGGCTG,-0.0242,-0.136,-0.00476,0.843,-0.0949,1.16,-0.0323,-0.065,-0.203,-0.13
AGGTATG,0.141,0.0717,0.109,0.406,0.178,0.376,0.0447,0.112,-0.051,0.0929
GTGCTTG,0.0522,0.0107,-0.112,-0.0646,-0.171,-0.209,-0.0605,-0.0266,0.00795,-0.0784
TGAATGC,0.0597,-0.042,-0.429,-0.522,-0.0165,-1.04,0.073,-0.0747,-0.142,-0.0552
GCTAAAC,-0.0685,0.14,0.0371,0.375,-0.0562,0.087,0.126,-0.0957,-0.0249,0.0173
TCTGCTT,-0.196,-0.21,-0.279,-2.1,-0.178,-0.658,-0.207,-0.0755,-0.0744,-0.328
GCACCGA,-0.0693,-0.0396,-0.102,0.117,-0.111,-0.459,0.0997,-0.0586,0.00726,0.0885
TCAGACC,0.0132,0.0325,0.0344,0.309,-0.0124,-0.0801,0.118,0.0939,-0.0315,0.037
CAATTGT,-0.819,-0.149,-3.87,-3.34,-0.113,-2.93,-3.75,-3.21,-0.0592,-3.24
CATACCA,-0.0286,0.00717,-0.0942,-2.08,0.0105,-0.303,-0.446,-0.0611,0.0491,0.054
GACACAA,0.0527,0.139,0.376,0.781,0.114,0.672,0.242,0.0323,0.222,0.183
ATGTCAA,-0.0874,0.0361,0.0124,0.0759,0.00191,-0.435,0.0202,0.0618,0.042,-0.0827
AGTCCTT,0.0535,0.00224,0.634,0.806,-0.104,1.72,-3.19,-0.12,0.066,0.181
TGGCCGT,-0.0406,-0.0242,-0.171,-0.179,-0.175,-0.311,-0.00645,-0.12,-0.0105,0.157
ACTTAAG,0.00121,0.0958,-0.912,-0.0587,-0.0476,-0.949,0.22,0.0664,0.125,-0.0389
GTACTGA,0.0446,0.0515,0.249,0.749,0.0892,1.56,0.0585,0.114,-0.00406,0.0303
AAGAACC,0.0833,-0.0206,0.155,0.047,0.0832,0.147,-0.125,0.0577,-0.0463,0.113
AACATCG,0.0438,0.0478,-0.691,0.163,0.0837,-0.767,0.194,0.00579,0.0362,-0.107
CTAGATC,0.0222,0.0596,0.157,-0.0719,-0.106,-0.4,0.23,0.0991,-0.0207,0.107

Sequence,uncleaved DNA left (log2) [1],uncleaved DNA left (log2) [2],uncleaved DNA left (log2) [3],uncleaved DNA left (log2) [4],uncleaved DNA left (log2) [5],uncleaved DNA left (log2) [6],uncleaved DNA left (log2) [7],uncleaved DNA left (log2) [8],uncleaved DNA left (log2) [9],uncleaved DNA left (log2) [10]
GCGCCGA,0.00138,0.00799,0.00927,0.146,0.0565,-0.154,0.0678,0.0412,0.0618,0.0207
AGATAGC,0.113,0.0851,-0.215,-0.279,0.119,-0.976,0.192,0.101,0.142,0.0102
TATGCGT,0.00101,-0.114,-1.01,-0.207,-0.121,-1.08,-0.0692,-0.209,0.0138,-0.146
GAAGCCA,0.0685,0.0595,0.1,-0.274,0.000496,0.435,-0.067,-0.0508,0.032,0.1
GACCAAG,0.215,0.14,-0.577,-0.438,0.0878,-0.681,0.117,0.144,0.111,0.189
GCCCCAA,0.091,0.184,0.288,0.603,0.0778,0.466,0.127,0.101,0.076,0.237
ATATGTC,-0.354,-0.169,-0.207,-0.317,0.0194,-1.04,-0.0592,-0.192,-0.0642,-0.0765
TGTCGGG,0.122,-0.0521,0.00153,0.067,-0.113,-0.373,-0.055,-0.0453,-0.111,-0.092
TTGTGCC,0.0219,-0.0377,-0.42,-0.544,-0.0303,-1.2,-0.103,-0.092,0.0531,-0.112
GCAACGT,-0.0656,-0.0934,0.0256,0.162,-0.0507,-0.327,0.112,-0.0529,-0.0301,0.0277
CATCAAC,-0.0961,-0.0391,-0.113,-1.48,-0.0598,-0.87,-0.0883,-0.0825,-0.0228,-0.0425
CTCTGTA,-0.152,-0.0889,-0.0869,-0.885,-0.138,-0.708,-0.31,-0.0474,0.0398,-0.0452
TTAGCCG,-0.0409,-0.102,-0.942,-0.377,0.0126,-1.16,0.136,-0.108,-0.14,-0.231
CATTTCC,-0.215,-0.326,-0.082,-0.569,-0.00601,-0.935,-0.309,-0.178,-0.0131,-0.00825
CAGAGGA,0.0921,0.124,0.31,0.453,0.17,-0.338,0.0167,0.197,0.048,0.103
TTGAACT,-0.000197,-0.0797,-0.116,-2.5,0.00444,-0.232,-0.861,-0.0726,-0.0216,-0.0711
TGATCTT,-3,-0.045,-0.00519,-1.95,0.0359,0.393,-3.04,-0.186,0.0987,-0.189
CTTTAGG,0.15,0.0304,0.408,1.14,0.0152,1.1,0.103,0.0884,-0.00882,0.129
GGATACG,0.0935,-0.054,-0.366,-0.0773,0.0189,-0.552,0.209,0.0256,-0.082,-0.0357
AATCTCT,0.188,0.0662,-0.193,-2.17,0.044,0.802,-0.478,0.0259,0.0718,0.152
